Test results taken from PubChem BioAssay AID1347430 (National Center for Advancing Translational Sciences (NCATS), 2020).
In all, about 91,000 compounds went through this assay and about 130 (0.14%) were called active. This list was built around the results that the source calls inconclusive (neither active nor inactive); the mix of calls is not that of the screen. The call rests on the fitted dose curve; in most records, active means well fitted inhibition curve with a large enough effect; inconclusive means small, poorly fitted or top-dose-only effect; inactive means flat fitted curve, though single readings scatter. Potencies of inconclusive entries are doubtful fits and often do not repeat.

System: Uracil-DNA glycosylase
Assay: Primary qHTS assay for inhibitors of Activation Induced Cytidine Deaminase (AID): UDG Counterscreen signal; further: nearly all actives have a fitted effect of over 65% in size
Conditions: FRET deamination/UDG coupled assay, UDG read, 4 h; activity change, negative = inhibition: at 115 µM (top of the series)
On the % scale 0 is the no-effect control and ±100 the full control effect; potency means the concentration at half of the fitted maximal effect; tags describe the fitted curve by direction and shape.

**Q.** With `CC1CCN(S(=O)(=O)c2nnc(NC(=O)c3cccc(F)c3)s2)CC1` as the molecule, how does the “activity change, negative = inhibition” value read?
**A.** Its value is inactive: -2.3%.

**Q.** `Cc1ccc(N2CCN(c3nc4c(S(=O)(=O)c5ccc(C)c(C)c5)nnn4c4ccccc34)CC2)c(C)c1` was tested. Which Potency did it give?
**A.** Its Potency is inconclusive: 100 µM [inhibitor, single point].

**Q.** Which Potency does the source give for `COc1ccc(C)cc1NC(=O)CSc1nc(=O)n(Cc2cccnc2)c2c1CCC2` here?
**A.** The Potency was inconclusive: 89.1 µM [inhibitor, single point].

**Q.** `O=C(NCc1cccnc1)C1c2ccccc2C(=O)N(Cc2ccccc2)C12CCCCC2` (centres undefined) was tested. Which “activity change, negative = inhibition” value did it give?
**A.** The value was inactive: 7.52%.

**Q.** For `N#Cc1ccc(COC(=O)c2ccc3ccccc3n2)cc1`, which “activity change, negative = inhibition” value is on record?
**A.** The value was inactive: 0.049%.

**Q.** Which Potency does the source give for `COC(=O)c1c(NC(=O)C2c3ccccc3Oc3ccccc32)sc2c1CCC(C)C2` (centres undefined) here?
**A.** Its Potency is inconclusive: 89.1 µM [inhibitor, partial curve, poor fit].

**Q.** Which Potency does the source give for `CSc1ncc(Cl)c(C(=O)NCc2ccc(C)cc2)n1` here?
**A.** The Potency was inconclusive: 79.4 µM [inhibitor, single point].

**Q.** Which Potency does the source give for `Cc1ccc(CCNC(=O)c2ccc(CS(=O)(=O)c3ccc(Br)cc3)o2)cc1` here?
**A.** Its Potency is inconclusive: 89.1 µM [inhibitor, single point].

**Q.** With `CC(C)Cn1c(Cn2cccn2)nc2cc(NC(=O)COc3ccccc3)ccc21` as the molecule, how does the Potency read?
**A.** Its Potency is inconclusive: 100 µM [inhibitor, single point].

**Q.** With `Cc1ccccc1S(=O)(=O)N1CCC(n2c(CC(C)C)nc3cccnc32)CC1` as the molecule, how does the Potency read?
**A.** The Potency was inconclusive: 89.1 µM [inhibitor, single point].

**Q.** For `COc1ccccc1N1CCN(CCCNC(=O)c2cnn(-c3ccccc3Cl)c2C2CCN(C(=O)OC(C)(C)C)CC2)CC1`, which Potency is on record?
**A.** The Potency was inconclusive: 89.1 µM [inhibitor, single point].

**Q.** With `CC1CCN(CC(=O)N2CCCc3c2c(=O)oc2ccc(OCc4ccccc4)cc32)CC1` as the molecule, how does the Potency read?
**A.** The Potency was inconclusive: 100 µM [inhibitor, single point].

**Q.** Which Potency does the source give for `CCOc1ccc(N2C(=O)c3[nH]nc(-c4ccccc4)c3C2c2ccc(O)c(OC)c2)cc1` (centres undefined) here?
**A.** The Potency was inconclusive: 35.5 µM [inhibitor, single point].

**Q.** For `CCN(CC)c1ccc(NC(=O)CN2CCN(S(=O)(=O)c3ccc(C(C)C)cc3)CC2)cc1`, which Potency is on record?
**A.** Its Potency is inconclusive: 8.91 µM [inhibitor, full curve, poor fit].

**Q.** Which Potency does the source give for `COc1ccc(-c2noc(CC(=O)N(C)c3ccccc3F)n2)cc1` here?
**A.** Its Potency is inconclusive: 89.1 µM [inhibitor, single point].

**Q.** Which Potency does the source give for `Cc1oc2ncnc(N3CCCCC3)c2c1C(=O)NCC1CCN(Cc2ccccc2F)CC1` here?
**A.** The Potency was inconclusive: 100 µM [inhibitor, single point].

**Q.** For `N#C/C(=C\c1ccc(-c2ccccc2C(=O)O)o1)c1nc2ccccc2[nH]1`, which Potency is on record?
**A.** Its Potency is inconclusive: 28.2 µM [inhibitor, partial curve, poor fit].

**Q.** Which “activity change, negative = inhibition” value does the source give for `CC(C)Oc1cccc(NC(=O)C2CCN(S(=O)(=O)Cc3ccccc3)CC2)c1` here?
**A.** Its value is inactive: 37.9%.

**Q.** With `CCOC(=O)c1c(S(=O)(=O)N2CCC(C(=O)N3CCN(c4cccc(C)c4C)CC3)CC2)c(C)n(C)c1C` as the molecule, how does the Potency read?
**A.** The Potency was inconclusive: 79.4 µM [inhibitor, partial curve, poor fit].

**Q.** Which Potency does the source give for `CC(NC(=O)C1(c2cccs2)CCOCC1)c1ccccc1` (centres undefined) here?
**A.** Its Potency is inconclusive: 89.1 µM [inhibitor, single point].

**Q.** `Cc1nc2cccnc2n1C1CCN(S(=O)(=O)c2ccc(Cl)cc2)CC1` was tested. Which Potency did it give?
**A.** Its Potency is inconclusive: 79.4 µM [inhibitor, partial curve, poor fit].

**Q.** Which Potency does the source give for `N#Cc1ccc2c(c1)OCCO2` here?
**A.** Its Potency is inconclusive: 44.7 µM [inhibitor, partial curve, poor fit].

**Q.** `Cc1ccc(Nc2nc(NCCc3ccccc3)nc3c2cnn3C)cc1C` was tested. Which Potency did it give?
**A.** Its Potency is inconclusive: 44.7 µM [inhibitor, partial curve, poor fit].

**Q.** For `CCN(Cc1ccccc1)Cc1c(O)ccc2c(=O)c(-c3ccccc3OC)c(C(F)(F)F)oc12`, which Potency is on record?
**A.** Its Potency is inconclusive: 89.1 µM [inhibitor, partial curve, poor fit].

**Q.** With `CCOCCCNC(=O)C1CCCN(Cc2nc(-c3ccc(CC)cc3)oc2C)C1` (centres undefined) as the molecule, how does the Potency read?
**A.** Its Potency is inconclusive: 79.4 µM [inhibitor, partial curve, poor fit].

**Q.** For `CS(=O)(=O)N(Cc1csc(-c2cccs2)n1)C1CCN(C(=O)c2cccc(Cl)c2)CC1`, which Potency is on record?
**A.** Its Potency is inconclusive: 89.1 µM [inhibitor, single point].

**Q.** `Cc1ccc(-n2nnc3c(N4CCN(C(=O)Cc5cccs5)CC4)ncnc32)cc1` was tested. Which Potency did it give?
**A.** The Potency was inconclusive: 89.1 µM [inhibitor, single point].

**Q.** For `O=C(Nc1ccccc1)NC1CCSc2ccccc21` (centres undefined), which “activity change, negative = inhibition” value is on record?
**A.** Its value is inactive: -16%.

**Q.** With `O=[N+]([O-])c1cc(-c2nc(-c3ccccc3)no2)ccc1NCC1CCCO1` (centres undefined) as the molecule, how does the Potency read?
**A.** The Potency was inconclusive: 100 µM [inhibitor, single point].

**Q.** For `Cc1nn(CC(=O)NCc2cccc(Br)c2)c(=O)c2cccn12`, which “activity change, negative = inhibition” value is on record?
**A.** The value was inactive: -10.1%.

**Q.** Which Potency does the source give for `Cc1cccc(NC(=O)c2ccc(C(=O)Nc3cccc(C)c3C)cc2)c1C` here?
**A.** Its Potency is inconclusive: 100 µM [inhibitor, single point].

**Q.** Which Potency does the source give for `CCN(C(=O)CSc1nc2ccccc2n1CC(=O)NCc1ccc(OC)cc1)c1ccccc1` here?
**A.** Its Potency is inconclusive: 100 µM [inhibitor, single point].

**Q.** For `C/C(=N/Nc1ccc(Cl)cc1)c1ccc(Br)s1`, which “activity change, negative = inhibition” value is on record?
**A.** The value was inactive: 3.64%.

**Q.** For `CCn1c(SCc2ccccc2Cl)nc(=O)c2c(C(=O)OC)cc(C3CC3)nc21`, which Potency is on record?
**A.** The Potency was inconclusive: 89.1 µM [inhibitor, single point].

**Q.** Which Potency does the source give for `COc1cccc(-c2nc(SCc3cc(=O)c4ccc(C)c(C)c4[nH]3)n[nH]2)c1` here?
**A.** Its Potency is inconclusive: 25.1 µM [inhibitor, partial curve, poor fit].

**Q.** `CCCN(C(=O)c1nn(-c2ccc(OC)cc2)c(=O)c2c1c1ccccc1n2C)c1ccc(CC)cc1` was tested. Which Potency did it give?
**A.** The Potency was inconclusive: 89.1 µM [inhibitor, partial curve, poor fit].

**Q.** With `CN(CCOc1ccccc1)Cc1cc(=O)oc2cc(O)ccc12` as the molecule, how does the “activity change, negative = inhibition” value read?
**A.** Its value is inactive: -4.07%.

**Q.** With `Cc1ccc(CN2CCC(CNc3ncnc4onc(-c5ccc(F)cc5)c34)CC2)cc1` as the molecule, how does the Potency read?
**A.** The Potency was inconclusive: 89.1 µM [inhibitor, partial curve, poor fit].

**Q.** How did the Potency turn out when `NNc1cccc(S(=O)(=O)c2cccc(NN)c2)c1` was run?
**A.** The Potency was active: 44.7 µM.
